Out of some 48,000 compounds screened, about 450 (0.94%) were called active. Inconclusive results (about 19%) are left out. Calls come from the whole dose curve; as a rule, active = well fitted inhibition curve with a large enough effect; inconclusive = small, poorly fitted or top-dose-only effect; inactive = no such curve, though single readings can be large or run the other way. The list shows a part of the results.
Assay: Primary qHTS for Identification of Small Molecule Inhibitors of Huntingtin Promoter Activity; note: nearly all actives have a fitted effect of over 50% in size
Details: HEK293 HTT promoter firefly luciferase reporter (activity 0% = vehicle and -100% = no light), 24 h; series mostly up to 57.5 µM; activity change, negative = inhibition: at the top concentration
Method in brief: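 Luminescence was read after Dual-Glo reagent and a 10 min room-temperature incubation. Values were normalized to vehicle (0% activity) and zero RLU (-100% activity). Reporter HEK293 cells had been exposed to compounds (up to 57.5 uM final) for 24 h.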

Row | SMILES | activity change, negative = inhibition
1 | CC(C)CNC(=O)N1[C@H](c2cccs2)[C@@H](C)C(=O)[C@@H](C)[C@@H]1c1cccs1 | inactive: -18%
2 | COc1ccc(C)cc1NS(=O)(=O)c1c(C(=O)N2CCCCCC2)c(C)n(C)c1C | inactive: -1.71%
3 | COc1ccc(CC(=O)NCCc2csc(-c3cccc(C)c3)n2)cc1 | inactive: 4.67%
4 | Cc1ccc(-n2c(=O)[nH]c3cc(C(=O)NCc4ccccc4)ccc3c2=O)cc1 | inactive: -11.3%
5 | Cc1nc(-c2ccccc2)sc1-c1ccc(SCC(=O)NCc2ccc(Cl)cc2)nn1 | inactive: 14.6%
6 | CC(CNC(=O)c1nnc(Cc2ccc(F)cc2)o1)c1ccccc1 (stereo not drawn) | inactive: -22%
7 | Cc1ccc(-n2nc3c(=O)n(CC(=O)NCCC(C)C)nc(C)c3c2C)cc1 | inactive: -0.532%
8 | Nc1ncn([C@H]2C[C@H](O)[C@@H](CO)O2)c(=O)n1 | inactive
9 | COCCCNC(=O)Cn1c(=O)nc(-c2ccccc2)c2ccccc21 | inactive: 0.008%
10 | NCCCCNCCCN | inactive: 107%
11 | CCCCC12CN3CC(C)(CN(C1)C3c1ccc(O)c(OC)c1)C2=O (stereo not drawn) | inactive: -6.57%
12 | Cc1cccn2c(=O)c(C(=O)NCCc3ccccc3)cnc12 | inactive: -18.2%
13 | COc1cccc(NC(=O)CSc2nccn2C2CCCC2)c1 | inactive: 12.4%
14 | C[C@@H](c1ncncc1F)C(O)(Cn1cncn1)c1ccc(F)cc1F (stereo partly drawn) | inactive: 5.98%
15 | O=C(NC1CCCC1)c1ccc2c(c1)N(Cc1ccccc1)C(=O)c1ccccc1S2 | inactive: -17.7%
16 | CC(C)(C(=O)c1cccnc1)c1cccnc1 | inactive: 9.25%
17 | Cc1ccc(F)cc1NC(=O)Cn1c(C)cc(C)c(C#N)c1=O | inactive: 2.53%
18 | COc1ccc(N2CCN(Cc3nc4c(c(=O)[nH]c(=O)n4C)n3CC(C)C)CC2)cc1 | inactive: -1.56%
19 | O=C(NCc1cccc(Br)c1)c1ccc(NC(=O)N2CCCCc3ccccc32)cc1 | inactive: -19.5%
20 | C[C@H](O)[C@@H]1C(=O)N2C(C(=O)O)=C(S[C@@H]3CN[C@H](CNS(N)(=O)=O)C3)[C@@H](C)[C@@H]12 | inactive: 9.52%
21 | Cc1ccccc1C(=O)Nc1c(C)nc2ccccn2c1=O | inactive: 5.57%
22 | Cn1c(=O)oc2cc(S(=O)(=O)N3CCCC(C(=O)NCCc4ccccc4)C3)ccc21 (stereo not drawn) | inactive: -17.6%
23 | CC(=O)c1ccc(NS(=O)(=O)c2ccc3[nH]c4c(c3c2)CCCC4)cc1 | inactive: -0.227%
24 | Cc1ccc(CNC(=O)c2c[nH]n3c(=O)c(Cc4ccc(Cl)cc4)c(C)nc23)cc1 | inactive: -18.5%
25 | Cc1c(C)c2c(c(C)c1OC(=O)CCC(=O)OCCO)CC[C@@](C)(CCC[C@H](C)CCC[C@H](C)CCCC(C)C)O2 | inactive: -28.5%
26 | Cc1cccc(CNC(=O)c2ccc3nc(Cc4ccccc4)oc3c2)c1 | inactive: -21.2%
27 | O=C(NCCc1ccccc1)c1nn(-c2ccc(F)cc2)nc1CO | inactive: 6.9%
28 | COc1ccc(NC(=O)CSc2nnc(NC(=O)NC3CCCCC3)s2)cc1OC | inactive: 74.6%
